Reference: paper PMC4336329 (PLoS ONE, 2015)
The whole screen tested about 310,000 compounds, of which about 2,200 (0.71%) showed an effect of 50% or more. Effects have a minus sign here. The list shows a part of the results.

target: human ether-à-go-go-related gene (hERG) potassium channel (human, UniProt Q12809); assay: primary screen, population patch clamp on CHO cells stably expressing hERG
Sequence (Q12809 whole entry, looked up): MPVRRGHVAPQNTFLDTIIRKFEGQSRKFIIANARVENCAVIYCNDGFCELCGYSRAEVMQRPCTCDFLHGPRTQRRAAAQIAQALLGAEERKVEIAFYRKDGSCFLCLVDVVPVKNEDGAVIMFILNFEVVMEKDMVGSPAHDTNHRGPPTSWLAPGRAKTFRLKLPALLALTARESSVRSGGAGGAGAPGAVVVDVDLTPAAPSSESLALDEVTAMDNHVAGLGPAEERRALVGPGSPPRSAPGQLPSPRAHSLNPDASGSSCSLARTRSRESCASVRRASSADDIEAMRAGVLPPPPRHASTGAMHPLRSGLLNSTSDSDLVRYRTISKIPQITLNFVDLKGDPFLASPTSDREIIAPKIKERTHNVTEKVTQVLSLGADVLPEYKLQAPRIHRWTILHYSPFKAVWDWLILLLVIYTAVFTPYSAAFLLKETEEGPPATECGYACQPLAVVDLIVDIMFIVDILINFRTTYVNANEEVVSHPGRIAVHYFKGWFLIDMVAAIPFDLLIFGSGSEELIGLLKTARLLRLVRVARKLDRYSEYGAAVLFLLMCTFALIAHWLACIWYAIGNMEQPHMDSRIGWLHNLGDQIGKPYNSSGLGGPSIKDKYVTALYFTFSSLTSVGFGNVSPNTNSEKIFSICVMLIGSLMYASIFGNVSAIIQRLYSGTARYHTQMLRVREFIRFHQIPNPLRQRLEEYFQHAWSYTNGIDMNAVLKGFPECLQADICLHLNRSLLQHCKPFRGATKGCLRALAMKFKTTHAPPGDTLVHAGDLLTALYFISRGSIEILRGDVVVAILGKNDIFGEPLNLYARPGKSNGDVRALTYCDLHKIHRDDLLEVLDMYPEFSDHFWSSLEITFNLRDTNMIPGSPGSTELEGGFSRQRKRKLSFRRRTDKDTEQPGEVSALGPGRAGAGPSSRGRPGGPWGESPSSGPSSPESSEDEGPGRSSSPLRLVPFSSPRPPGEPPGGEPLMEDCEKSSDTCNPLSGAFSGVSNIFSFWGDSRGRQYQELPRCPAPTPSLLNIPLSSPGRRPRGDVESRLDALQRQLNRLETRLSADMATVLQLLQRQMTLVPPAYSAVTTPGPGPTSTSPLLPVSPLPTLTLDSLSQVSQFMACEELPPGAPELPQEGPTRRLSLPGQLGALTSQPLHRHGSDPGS

Structure (SMILES)	hERG current change (%, negative = inhibition) at 1uM [%]
Cc1ccc(NCc2ccccc2OCc2ccccc2F)cc1	14.7
CCCCc1cc(=O)oc2cc(OCC(=O)Nc3cccnc3)c(Cl)cc12	21.3
Cc1ccc2[nH]c(-c3cccc(N)c3)cc2c1	16.3
O=C(Nc1ccc(-c2cn3ccccc3n2)cc1)c1cccs1	4.17
CCOc1cc(/C=N/NC(=O)c2ccccn2)ccc1OC(=O)c1cccs1	9.19
COCCN(C(=O)CCC(=O)Nc1nccs1)C(C(=O)NCCC(C)C)c1ccc(OC)cc1 (centres unmarked)	15.2
Fc1ccc(-c2cc(C(F)(F)F)nc(-n3cc(Cl)cn3)n2)cc1	2.75
O=C1c2oc3ccccc3c(=O)c2C(c2ccccn2)N1Cc1ccccc1 (centres unmarked)	8.83
COc1cc(NC(=O)CSc2nc3[nH]c(=O)cc(O)c3s2)cc(OC)c1OC	14.1
C[C@@H](Nc1nc(-c2ccccc2)nc2c1oc1ccccc12)C(=O)O	16.5
CC(C)(C)NC(=O)C(c1ccccc1)N(Cc1cccs1)C(=O)c1csnn1 (centres unmarked)	9.67
COc1ccc(Br)cc1S(=O)(=O)N1CCCc2ccccc21	9.51
CCN1CCCC1CNC(=O)C(=O)NCc1ccccc1 (centres unmarked)	3.56
CCn1cc(S(=O)(=O)CC(=O)Nc2ccc(OC)cc2)c2ccccc21	9.04
CCOC(=O)c1c(N)n[nH]c1-c1ccc(OC)cc1	-6.25
CC(NC(=O)c1cccnc1)c1ccc2c(c1)OCO2 (centres unmarked)	-2.02
COc1cc(OC)cc(C(=O)OCC(=O)Nc2sccc2C(N)=O)c1	5.65
COc1ccc(C2(c3ccc(OC)cc3)NC(=O)N(CC(=O)Nc3ccc(C(=O)N(C)C)cc3)C2=O)cc1	3.26
COc1ccc(-c2c(C#N)c(N)nc3c2CCCCCC3)cc1OC	13.6
Cc1nc(N)[nH]c(=O)c1CC(=O)OCCCl	8.61
Cc1csc(SC(C)c2nc3scc(-c4ccccc4)c3c(=O)[nH]2)n1 (centres unmarked)	7.31
CCCCCc1nc2c(c3c1CCCC3)CCCC2	-51.7
O=C(COC(=O)C1CCN(S(=O)(=O)c2ccc3c(c2)OCCO3)CC1)NC1CCCCC1	1.18

Structure (SMILES)	hERG current change (%, negative = inhibition) at 1uM [%]
Nc1c(Cl)cc(NC(=O)c2ccccc2C(=O)O)cc1Br	8.33
O=c1[nH][nH]c2nc(C(F)(F)F)cc(C(F)(F)F)c12	5.11
CSc1nc(NS(=O)(=O)c2cc(Br)ccc2Br)cc(=O)[nH]1	13.1
COc1ccc(C2SCC(=O)N2c2c(C)n(C)n(-c3ccccc3)c2=O)c(OC)c1 (centres unmarked)	4.43
CN(C)S(=O)(=O)c1cccc(NC(=O)c2cc(-c3cccs3)nn2-c2cccc(Cl)c2)c1	15.5
CCOC(=O)COc1ccc(C(=O)Nc2cccc(Cl)c2C)cc1	11.7
CCC(=O)Nc1cc(-c2nn3c(C)nnc3s2)ccc1C	4.77
CCOC(=O)N1CCN(C(=O)C2CCN(S(=O)(=O)c3cc(Cl)ccc3Cl)CC2)CC1	-10.6
CNC(=O)NC(=O)COC(=O)c1ccc(-n2c(C)ccc2C)cc1	7.3
O=C(c1cc(C2CC2)nn1-c1ccccc1)N1CCN(c2ncc(C(F)(F)F)cc2Cl)CC1	1.64
CCOc1ccc(CCNC(=O)COC(=O)c2cccc(S(=O)(=O)N3CCCC3)c2)cc1OCC	-6.27
CCCn1ncc(C(=O)O)c1C	2.04
COC(=O)C1=C2SC(C)C(=O)N2C(N)=C(C#N)C1c1cc(OC)c(OC)c(OC)c1 (centres unmarked)	-7.86
CC(C)=CCc1c(O)cc2c(=O)c3ccc(O)cc3oc2c1O	0.617
CC(C)Cn1nc(NS(=O)(=O)c2ccccc2)c2cc3ccccc3nc21	6.86
Cc1ccc(NC2c3ncccc3C(=O)N2Cc2ccco2)c(C)c1 (centres unmarked)	13.6
CCC(C)c1ccc(O)c(NC(=O)c2cccnc2)c1 (centres unmarked)	7.46
CCc1cccc(CC)c1NC(=O)CN1CCc2cc(OC)c(OC)cc2C1	10.5
Cc1sc2c(=O)n3c(nc2c1C(=O)NC1CCCCC1)CCCCC3	9.42
COc1cccc(NC(=O)CN(C)C(=O)c2cccnc2Sc2ccc(C)c(C)c2)c1	21
O=C(c1ccccc1O)N1N=C(c2ccccc2)CC1(O)C(F)(F)F (centres unmarked)	1.54
Cc1nnc(SCC(=O)Nc2sc3c(c2C(N)=O)CCC(C)C3)[nH]c1=O (centres unmarked)	10.6
CN(C)C(=O)N1CCC(C(=O)NCc2ccccc2Cl)CC1	7.64

Structure (SMILES)	hERG current change (%, negative = inhibition) at 1uM [%]
COc1ccc(-c2csc(N(C)C(=O)c3cccs3)n2)cc1	9.66
CCN(CC)c1ccc2cc(C(=O)NCc3ccc(F)cc3)c(=N)oc2c1	11.9
Cc1cc(NC(=O)C23CCC(C)(C(=O)O2)C3(C)C)no1 (centres unmarked)	7.48
Cc1ccc2cc(C(c3nnnn3C3CCCC3)N(Cc3ccco3)Cc3cccs3)c(=O)[nH]c2c1 (centres unmarked)	3.22
O=C(c1ccccc1)c1ccc(C(=O)N2CCN(c3ccccc3)CC2)cc1	-1.57
CCOc1ccccc1OCCC(=O)N1CCN(S(=O)(=O)c2ccccc2[N+](=O)[O-])CC1	4.28
Cc1ccc(-n2c(=O)[nH]c3c(C(N)=O)nc(CC(C)C)nc32)cc1	5.48
Cc1c(Cl)ccc2c(C(=O)O)cc(-c3ccccc3)nc12	6.22
CCOc1cc(N2CCOCC2)c(OCC)cc1NC(=O)Cc1ccccc1	-0.537
Cc1nc(Cl)sc1C(=O)O	3.19
CC(=O)O[C@H](CC(=O)O)C[N+](C)(C)C.[Cl-]	11.2
O=C(N=C1SC2CS(=O)(=O)CC2N1c1ccc(Cl)cc1Cl)C1CC1 (centres unmarked)	-0.584
COc1ccc(Cl)cc1NC(=S)NNC(=O)C1(C)CC1(Cl)Cl (centres unmarked)	1.4
COC(=O)Cc1ccc(NC(=S)NCC(C)C)cc1	-0.549
CCOc1ccc(CN2CCNC(=O)C2CC(=O)NCCC2=CCCCC2)cc1 (centres unmarked)	20.9
CC(C)C1Cc2ccccc2-c2[nH]c(=S)[nH]c(=O)c21 (centres unmarked)	9.71
CC(=O)Nc1ccc(C(=O)NNS(=O)(=O)c2ccc(C)cc2)cc1	8.38
Cc1ccc(Nc2nc(=O)c3cccnc3s2)c(Br)c1	8.22
CCc1cc2ccccc2nc1SCC(=O)NC1CCCC1	12.1
Cc1ccc(CNc2ccc3c(c2)ncn3C(C)(C)C)cc1	-18.2
CCOP(C)(=O)C1(C(=O)OCc2ccccc2)CC1 (centres unmarked)	15.6
O=C(c1cc2cc(Br)ccc2oc1=O)N1CCN(c2ccccn2)CC1	-5.91
CCOC(=O)C1CCN(C(=O)c2cccnc2Oc2ccc(Cl)cc2)CC1	-8.77

Structure (SMILES)	hERG current change (%, negative = inhibition) at 1uM [%]
CC(C)(C)C(=O)NC(Nc1cccc2cccnc12)C(Cl)(Cl)Cl (centres unmarked)	0.891
COC(=O)C(C)Sc1nnc(Cc2cc(=O)[nH]c(=O)[nH]2)n1-c1ccc(Cl)cc1 (centres unmarked)	17.2
CCCCC(CC)CNC(=O)CCS(=O)(=O)c1cccc2nsnc12 (centres unmarked)	12.2
CCOC(=O)c1c(C)[nH]c(N=Nc2ccc(OC)cc2)c1C	10.7
COc1cc2c(c(OC)c1)C(=O)OC(C)CCCC(=O)CCCCC2 (centres unmarked)	15.3
COCCCNc1nc2c(-c3cccc(C)c3)nnn2c2ccc(Cl)cc12	13.3
Cc1nccc(-c2cc(-c3ccc(Cl)cc3Cl)no2)n1	8.1
Cc1cccc(NC(=O)[C@@H]2CCCN2C(=O)OC(C)(C)C)c1	13
COC(=O)c1cc(NS(=O)(=O)c2ccc(F)cc2)ccc1N1CCOCC1	30.9
Cl.c1csc(CNc2ccc3c(c2)OCCO3)c1	8.55
CSCCC(NC(=O)c1ccccc1Br)C(=O)NNC(=O)c1csc(N2CCOCC2)n1 (centres unmarked)	2.9
CC1OC(OC2C(CO)OC(OC3C(CO)OC(O)C(O)C3O)C(O)C2O)C(O)C(O)C1N[C@@H]1C=C(CO)[C@@H](O)C(O)[C@H]1O (some centres unmarked)	22.1
O=S(=O)(Nc1ccc2c(c1)nc1n2CCOC1)c1ccc(Cl)cc1	-1.24
Cc1cc(C)cc(NC(=O)CSc2nnc(Cc3cccn3C)n2-c2ccc(F)cc2)c1	9.47
Cc1cc(C(F)F)n2nc(C(=O)Nc3ccc(S(=O)(=O)N4CCCCCC4)cc3)nc2n1	5.81
Cc1cc(C)n(-c2ccc(C(=O)Nc3sccc3C(N)=O)cc2)n1	-6.94
O=c1cnnc(SCCc2ccccc2)[nH]1	-1.68
COc1ccc(C)cc1Nc1nnc(C)c(=O)[nH]1	12.1
O=C(Nc1ccc(S(=O)(=O)Nc2ccccc2F)cc1)N1CCCCC1	15.1
Cc1ccc(-n2c(C)cc(C(=O)COC(=O)c3c(C)noc3C)c2C)cc1	10.9
